In US20160374979A1, “Method of Treatment of Alopecia with Monoterpenoids” (CELLMID LIMITED, priority 2013, published 2016):
For some assays here: At least one read-out could not be matched to a standard name with certainty. For some assays here: At least one structure is not confirmed: it was looked up by name or label, or the drawing left a doubt.

Experiments:
[1] = tested on: FGF-5-dependent cell proliferation (FR-BaF3 cells expressing FGFR-1c); assay: FR-Ba/F3 cell proliferation/viability assay in the presence of FGF-5 (CCK-8); assay type: cell-based, murine; settings: FR-BaF3 cells with rhFGF-5 1 μg/mL, 3 days, tested 0.005% (w/v) to 1.0% (w/v)
Method: Ba/F3 is a murine interleukin-3 (IL-3)-dependent pro-B cell line. […] That is, compounds were tested for their ability to modulate proliferation of FR-Ba/F3 cells in the presence of recombinant human FGF-5 (rhFGF-5) prepared according to Maeda et al., Nishi Nihon Hifuka, 69(1): 81-86, 2007.
Briefly, a suitable plasmid expressing FGFR-1c was introduced into […] ER-Ba/F3 cells, and the cells were maintained in RPMI RPMI-1640 with 10% FBS and 1.3×10^−17 M of murine IL-3 (Sigma, St Louis, […].) containing antibiotic G418 sulfate (Promega, Medison, Wis.). The inventors compared proliferation of FR/BaF3 cells in culture medium containing IL3 or FGF-5 and a different concentration in the range from 0.005% (w/v) to 1.0% (w/v) of each test compound listed in Example 1. The FR-BaF3 cells were seeded at 5×10^4/mL cells per well in 96-well, micro-culture plates (Falcon) in RPMI-1640 culture medium containing 10% fetal bovine serum, 5 μg/mL heparin. Recombinant human FGF-5 (rhFGF-5; 1 μg/mL) was added to one group, and IL-3 (0.2 ng/mL) (Sigma) was added to another group. The test compounds were then introduced to the micro-culture plate wells. Total volume of media per well was 100 μl. Control groups lacking test compound were also prepared for each of the IL-3-supplemented and FGF-5-supplemented samples. The plates were then incubated at 37° C. in 5% CO2 for 3 days.
After 3 days, colorimetric assays were performed using a Cell Counting Kit-8 (CCK-8) (Wako) according to the manufacturer's instructions to measure cell proliferation or suppression thereof by the test compound at varying concentrations. Briefly, 10 μl (1:2 dilution) of the CCK-8 reagent was added to each micro-culture plate well after which time the plates were incubated at […] for 3 hours. Absorbance at 450 nm was then measured using a microplate reader. Cell viability and proliferation for the IL-3-supplemented and FGF-5-supplemented groups was calculated as a measure of the optical density (OD) of cells treated with a test compound relative to the OD of the respective untreated controls, excluding the OD of blank controls (media only). Dose response curves were plotted and the respective inhibitory concentrations (IC50) for the test compounds were determined.

[2] = tested on: FR-BaF3 cells cultured in the presence of IL-3; assay: FR-Ba/F3 cell proliferation/viability assay in the presence of IL-3 (CCK-8); assay type: cell-based, murine; settings: FR-BaF3 cells with IL-3 0.2 ng/mL, 3 days, tested 0.005% (w/v) to 1.0% (w/v)
alopecia patients = settings: topical minoxidil; cited from earlier work
[3] = tested on: Alkaline Phosphatase (ALP) activity in dermal papilla (DP) cells treated with FGF-5; assay: Dermal papilla alkaline phosphatase (DP-ALP) cell assay; assay type: cell-based, human; settings: 0.005-0.5 mg/ml, GSK3 inhibitor IX + rhFGF-5 1 μg/mL, 3 days, absorbance 490 nm
Method: Dermal papilla cells were prepared according to the methods described in WO2013/105417, Briefly, hairs were pulled from the scalp of a healthy subject showing normal non-alopecia hair growth using tweezers. Hair follicles with dermal papilla were thus obtained at a rate of approximately one for every 100 hairs pulled. The hair follicles with dermal papilla were separated from the hair using tweezers and transferred into a saline for inspection under a microscope. Under a microscope, each dermal papilla was isolated from a respective hair follicle using tweezers and a scalpel. Approximately 2000 isolated dermal papilla cells were then transferred to a 35 mm cell culture dish together 1-2 ml of cell culture medium, after which time the cells were cultured at 37° C. to produce a primary cell culture of dermal papilla. The cell culture medium consisted of approximately 90% DMEM medium, 10% fetal bovine serum (final concentration: 10%), FGF2 (final, concentration: 10 ng/ml), and penicillin-streptornycin solution (final concentration: 1 μg/ml) for every 2 mL of medium. Cell culture conditions were maintained for more than 14 days until dermal papilla cells covered approximately 40% of the area of the 35 mm culture dish, at which time subcultures were performed. […]

Compound | IC50 (%) FGF-5 [1] | IC50 (%) IL-3 [2] | patients in whom treatment is considered effective (alopecia patients) | relative ALP activity of DP cells treated FGF-5 [3]
CC1CCC(C(C)C)C(O)C1 (single isomer, unassigned; (-)) [(−)-Menthol, reference compound] | 1.0> % | 1.0> % | – | –
CC1=CC[C@](O)(C(C)C)CC1 [(+)-4-Terpinen-4-ol, (1S)-1-Isopropyl-4-methyl-3-cyclohexen-1-ol] | 0.11% | >1.0% | – | –
CC1=CC[C@@](O)(C(C)C)CC1 [(−)-4-Terpinen-4-ol, (R)-1-Isopropyl-4-methyl-3-cyclohexen-1-ol] | 0.5% | >1.0% | – | –
CC(C)=CCC/C(C)=C/CO [Geraniol, reference compound] | 1.0> % | 1.0> % | – | –
CC(=O)OC/C=C(\C)CCC=C(C)C [Geranyl acetate, (2E)-3,7-Dimethyl-2,6-octadien-1-yl acetate] | 0.1% | 0.8% | – | –
C=CC(C)(O)CCC=C(C)C (centres unmarked) [Linalool, 3,7-Dimethyl-1,6-octadien-3-ol] | <0.03% | 0.9% | – | –
Nc1cc(N2CCCCC2)nc(N)[n+]1[O-] [Minoxidil] | – | – | less than 60% | poor ability to increase relative ALP activity
CC(C)=CCC/C(C)=C\CO [Nerol, reference compound] | 1.0> % | 1.0> % | – | –
CCCCCCCCC=O [Nonanal, reference compound] | 0.1% | 0.9% | – | –
CC1=CC(=O)C(C(C)C)CC1 (centres unmarked) [Piperitone, 3-Methyl-6-(propan-2-yl)cyclohex-2-en-1-one] | 0.024% | 0.59% | – | –
CC(C)=CCCC(C)CCO (stereo not drawn) [beta-Citronellol, reference compound] | 1.0> % | 1.0> % | – | –
C=C(C)C1CC=C(C)C(O)C1 (stereo not drawn) [l-Carveol, 2-Methyl-5-(1-methylethenyl)-2-cyclohexen-1-ol] | 0.05% | 0.1% | – | –
CC1=CCC(C(C)(C)O)CC1 (stereo not drawn) [α-Terpineol, 2-(4-Methyl-3-cyclohexen-1-yl)-2-propanol] | ~0.01% | 0.05% | – | –
